“And” between values parts separate entries of the source, which are not always exact repeats. Equal values may be shown once. The campaign covered roughly 270,000 compounds. About 620 (0.23%) were called active. The inconclusive results got no clear call from the source; some entries with a clear call stand among them for comparison. The call rests on the fitted dose curve; in most records, active means well fitted inhibition curve with a large enough effect in the polarisation, with a control signal flat (not every such curve was filed as active); inconclusive means small, poorly fitted or top-dose-only effect, or effect the other way, or a change in a side signal; inactive means no such curve, though single readings can be large or run the other way; the % refers to the polarisation. A potency beside an inconclusive call is a rough fit, not a confirmed value. “Side channel” marks fits to a control or component signal instead of the main read-out.
Target: Menin (Homo sapiens) (UniProt O00255)
Chain of UniProt O00255 (O00255 whole entry, looked up): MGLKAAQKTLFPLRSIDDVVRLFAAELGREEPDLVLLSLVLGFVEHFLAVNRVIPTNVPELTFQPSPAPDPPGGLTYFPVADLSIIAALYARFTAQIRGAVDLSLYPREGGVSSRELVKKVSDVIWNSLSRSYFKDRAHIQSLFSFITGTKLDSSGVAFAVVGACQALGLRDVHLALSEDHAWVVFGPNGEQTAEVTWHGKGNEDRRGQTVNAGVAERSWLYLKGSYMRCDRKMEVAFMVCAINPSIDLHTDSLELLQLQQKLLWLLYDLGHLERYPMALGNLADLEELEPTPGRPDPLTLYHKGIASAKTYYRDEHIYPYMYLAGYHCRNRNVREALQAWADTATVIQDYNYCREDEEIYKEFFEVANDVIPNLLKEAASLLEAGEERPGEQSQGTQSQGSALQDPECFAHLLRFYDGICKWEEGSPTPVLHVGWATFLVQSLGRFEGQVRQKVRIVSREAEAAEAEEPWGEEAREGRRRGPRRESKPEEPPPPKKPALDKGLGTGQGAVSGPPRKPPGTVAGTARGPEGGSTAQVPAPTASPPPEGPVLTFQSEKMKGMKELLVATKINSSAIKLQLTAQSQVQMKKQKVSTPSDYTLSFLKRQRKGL
Assay: qHTS Assay for Inhibitors Targeting the Menin-MLL Interaction in MLL Related Leukemias: Competition With Texas Red Labeled MLL-derived Mutant Peptide; on FP activity change, negative = inhibition: % of control where 0% means no effect
Settings: fluorescence polarization; series mostly up to 61.6 µM; FP activity change, negative = inhibition: at the top concentration
Potency means the concentration at half of the fitted maximal effect; tags describe the fitted curve by direction and shape or compound fluorescence and quenching.

SMILES	Potency	FP activity change, negative = inhibition
CNCC[C@H](Oc1ccc(C(F)(F)F)cc1)c1ccccc1	inconclusive: 22.4 µM [inhibitor, single point] and inconclusive: 17.8 µM [fluorescent, side channel, partial curve]	
CC(=NCc1cccnc1)c1c(O)n(C2CCCCC2)c(=O)[nH]c1=O	inconclusive: 7.94 µM [inhibitor, full curve, poor fit]	
COc1ccc2c(c1)c(C(=O)C(C)N1CCCCC1)c(C)n2C (stereo not given)	inconclusive: 10 µM [inhibitor, partial curve]	
Cc1cc(C=C2C(=O)NC(=S)NC2=O)c(C)n1-c1ccc2c(c1)OCO2	inconclusive: 39.8 µM [quencher, side channel, single point]	
O=C1C=CC(=O)c2c1ccc1c2ccc2ccccc21	inconclusive: 8.91 µM [quencher, side channel, partial curve]	
CN(C)C(=S)SSC(=S)N(C)C	inconclusive: 22.4 µM [quencher, side channel, single point]	
COc1ccc(CN2CCN(C(=O)Cn3c(=O)oc4cc(Cl)ccc43)CC2)c(OC)c1OC	inconclusive: 39.8 µM [inhibitor, single point]	
CCc1ccc(N2C(=O)NC(=O)/C(=C\c3cccn3CCOc3ccc(C(C)C)cc3)C2=O)cc1	inconclusive: 12.6 µM [quencher, side channel, partial curve]	
O=c1[nH]c(=O)n(Cc2ccccc2)c(O)c1/C=C1\C=Nc2ccccc21	inconclusive: 15.8 µM [quencher, side channel, partial curve]	
O=C(O)COc1ccc(/C=C2/SC(=S)N(Cc3ccccc3)C2=O)cc1	inconclusive: 15.8 µM [quencher, side channel, partial curve]	
CCc1cc2c(s1)N(CC(=O)OC)C(=O)CN=C2c1ccccc1OC	inconclusive: 15.8 µM [fluorescent, side channel, partial curve, poor fit]	
C=CCN1C(=O)NC(=O)/C(=C\c2ccc(-c3ccccc3[N+](=O)[O-])o2)C1=O	inconclusive: 28.2 µM [quencher, side channel, single point]	
CCN1C(=O)C(=Cc2cc(C)n(C3CC3)c2C)C(=O)N(CC)C1=S	inconclusive: 31.6 µM [fluorescent, side channel, single point]	
O=C(Cn1c(=O)oc2ccccc21)Nc1ccc(Br)cc1	inconclusive: 39.8 µM [fluorescent, single point]	
CCOc1ccc(-n2c(=O)c3c4c(sc3n(CC(=O)NCc3ccco3)c2=O)CCC4)cc1	inconclusive: 31.6 µM [fluorescent, side channel, partial curve]	
C=CCS(=O)(=O)N1CCC(CCOc2ccccc2)(C(=O)OCC)CC1	inconclusive: 7.94 µM [fluorescent, side channel, partial curve]	
C[C@@H]1O[C@@H](O[C@H]2CC[C@@H](O[C@H]3[C@H](O)C[C@H](c4ccc5c(c4O)C(=O)C4=C(C5=O)[C@@]5(O)C(=O)C[C@](C)(O[C@H]6CC[C@H](O[C@H]7C=CC(=O)[C@H](C)O7)[C@H](C)O6)C[C@@]5(O)C=C4)O[C@@H]3C)O[C@H]2C)C=CC1=O	inconclusive: 14.1 µM [quencher, side channel, partial curve]	
O=c1[nH]c(=O)n(CCC2=CCCCC2)c(O)c1C=Nc1cccc(F)c1	inconclusive: 5.01 µM [inhibitor, single point]	
O=C(COC(=O)Cc1ccccc1)NC12CC3CC(CC(C3)C1)C2	inconclusive: 25.1 µM [fluorescent, side channel, single point]	
O=C(NC1CCCCC1)c1cn(CCN2CCOCC2)c2cc(Cl)ccc2c1=O		inactive: -0.848%
CCCOP(=O)(OCCC)C1(Nc2ccc(C)cc2)CCCCC1	inconclusive: 4.47 µM [fluorescent, side channel, full curve]	
COC(=O)CC(=O)c1ccc2c(c1)OCO2	inconclusive: 25.1 µM [inhibitor, single point]	
Cc1ccc(NC(=O)c2cn(CCC#N)nc2-c2ccc3c(c2)OCCO3)c([N+](=O)[O-])c1		inactive: 22.3%
O=C(N/N=C/c1cccnc1)c1ccc(NC(=O)C(c2ccccc2)c2ccccc2)cc1	inconclusive: 7.94 µM [quencher, side channel, partial curve]	
Cc1ccc(N2C(=O)NC(=O)/C(=C/C=C/c3ccco3)C2=O)cc1		inactive: 15.3%
O=C(O)c1cc(Oc2ccc([N+](=O)[O-])cc2)cc(Oc2ccc([N+](=O)[O-])cc2)c1	inconclusive: 22.4 µM [quencher, side channel, single point]	
CCCCn1c(C)c(C(=O)OCC)c2c(CN3CCCC3)c(O)ccc21	inconclusive: 7.94 µM [fluorescent, side channel, full curve, poor fit]	
CN(C)C(=O)Oc1ccc(-c2cn3cc(Cl)ccc3n2)cc1		inactive: 11%

SMILES	Potency	FP activity change, negative = inhibition
Cc1cccn2c(=O)c3c(nc12)N1CCC(Cc2ccccc2)CC1C1(C3)C(=O)N(C)C(=O)N(C)C1=O (stereo not given)	inconclusive: 10 µM [fluorescent, side channel, partial curve]	
CCOc1cc2c(cc1OCC)-n1cccc1C(c1ccc(C)cc1C)NC2 (stereo not given)	inconclusive: 4.47 µM [fluorescent, side channel, full curve]	
Cn1c2ccccc2c2c(C(=O)N3CCC4(CC3)OCCO4)cn(C3CCCCC3)c(=O)c21		inactive: 1.68%
Cc1sc(NC(=O)Cn2c(=O)oc3ccccc32)nc1-c1ccc(Cl)cc1	inconclusive: 39.8 µM [inhibitor, single point]	
CCCCn1c(=O)c(C(=O)Nc2ccccc2)c(O)c2ccccc21	inconclusive: 14.1 µM [quencher, side channel, partial curve]	
CC(C)CCOP(=O)(c1ccc(N(C)C)cc1)C(O)c1ccccc1 (stereo not given)	inconclusive: 10 µM [fluorescent, partial curve]	
Cc1oc(-c2ccccc2Cl)nc1CN1C(=O)CN=C(c2ccccc2)c2ccccc21	inconclusive: 15.8 µM [fluorescent, side channel, partial curve]	
Cc1ccccc1CN1CCN(C(=O)Cc2ccccc2)CC1	inconclusive: 11.2 µM [inhibitor, partial curve]	
COC(=O)Cn1cc(C=C2C(=O)NC(=O)NC2=O)c2ccccc21	inconclusive: 10 µM [inhibitor, partial curve]	
CCCCCCCC/C=C\CCCCCCCC(=O)OC[C@@H](COP(O)(O)=S)OC		inactive: -0.468%
O=C1NC(=O)N(Cc2ccc(F)cc2)C(=O)/C1=C/c1cccs1	inconclusive: 39.8 µM [fluorescent, side channel, single point]	
CCOc1ccc2nc(N=Nc3c(O)[nH]c(=S)[nH]c3=O)sc2c1	inconclusive: 15.8 µM [quencher, side channel, partial curve]	
Cc1cccc(-n2c(/C=C/c3ccc([N+](=O)[O-])o3)nc3ccccc3c2=O)c1	inconclusive: 3.55 µM [quencher, side channel, full curve]	
O=C(O[C@@H]1Cc2c(O)cc(O)cc2O[C@@H]1c1cc(O)c(O)c(O)c1)c1cc(O)c(O)c(O)c1	inconclusive: 17.8 µM [quencher, side channel, partial curve]	
Cc1ccc(N2C(=O)NC(=O)/C(=C\c3ccoc3)C2=O)cc1	inconclusive: 20 µM [fluorescent, side channel, single point]	
CC[C@H]1CN2CCc3cc(OC)c(OC)cc3[C@@H]2C[C@@H]1C[C@H]1NCCc2cc(OC)c(OC)cc21	active: 22.4 µM	
CCOc1ccccc1CN1C2CCC1CC(c1ccc(C)cc1)C2 (stereo not given)	inconclusive: 11.2 µM [fluorescent, side channel, partial curve]	
C=CCN1C(=O)/C(=C/c2ccc(N3CCOCC3)o2)C(=O)NC1=S	inconclusive: 35.5 µM [fluorescent, side channel, single point]	
CCN1C(=O)NC(=O)/C(=C\c2cn(CC(=O)O)c3ccccc23)C1=O		inactive: 24.3%
COC(=O)C(Cc1ccc(N(CCCl)CCCl)cc1)N=Cc1ccccc1O (stereo not given)	inconclusive: 10 µM [inhibitor, full curve]	
Cc1ccc(C(O)(c2ccc(C)c(C)c2)C2CN3CCC2CC3)cc1C (stereo not given)	inconclusive: 7.94 µM [inhibitor, full curve]	
O=C1OC(c2cc(I)c(O)c(I)c2)(c2cc(I)c(O)c(I)c2)c2ccccc21	inconclusive: 12.6 µM [quencher, side channel, partial curve]	
COc1ccccc1-n1c(O)c(C=NCCN2CCNCC2)c(=O)[nH]c1=O	inconclusive: 17.8 µM [inhibitor, single point]	
CN=C(NC#N)NCCSCc1nc[nH]c1C	inconclusive: 6.31 µM [inhibitor, partial curve]	
NP(=O)(Oc1ccc(Cl)cc1)Oc1ccc(Cl)cc1	inconclusive: 28.2 µM [inhibitor, single point]	
C=CCc1ccc(OC(=O)NC2CCCCC2)c(OC)c1	inconclusive: 15.8 µM [fluorescent, side channel, partial curve]	
CC(C)c1ccc(N2C(=O)CC(=O)NC2=O)cc1	inconclusive: 12.6 µM [quencher, side channel, partial curve]	
